Measured values from patent US11186558B2, “Synthetic methods” (GLAXOSMITHKLINE INTELLECTUAL PROPERTY (NO. 2) LIMITED, priority 2016, dated 2021).

Experiments:
[1] = test system: patients with primary biliary cholangitis (PBC) and symptoms of pruritus; experiment: Phase 2 double-blind, placebo controlled, crossover trial in PBC patients with pruritus (Study 117213); format: in vivo, human
Procedure: A clinical study was carried out to investigate the safety, tolerability, and effect of repeat doses of GSK672 administration in patients with primary biliary cholangitis (PBC) and symptoms of pruritus. The results of this study have been summarized and published on clintrials.gov
A phase 2 double-blind, randomised, placebo controlled, crossover trial in PBC patients with pruritus was conducted at two specialist PBC centres in the United Kingdom between March 2014 and November 2015. Subjects received oral GSK672 (45 to 90 mg) and placebo twice daily for 14 days in a crossover sequence.
The primary end point was safety [measured by clinical and laboratory assessments and adverse events (AEs)] and tolerability. Secondary end points were: i) changes in pruritus scores from baseline measured using a 0 to 10 numerical rating scale (NRS) completed twice daily and PBC-40 itch domain scores and 5-D itch scale and ii) changes in serum levels of total bile acids (TBA) and 7alpha-hydroxy-4-cholesten-3-one (C4). Serum levels of individual BA species, autotaxin (ATX) activity and FGF19 were measured at baseline and at the end of each treatment period.
Reduction of pruritus severity occurred within the first week of GSK2330672, continued to decrease through 2 weeks of treatment and returned towards baseline upon blinded switch to placebo. Decreases in fatigue, sleep disturbance and overall disability were also noted upon GSK2330672 administration compared to placebo. […] GSK2330672 was minimally absorbed as evidenced by detection in isolated samples in a small portion of subjects (8 out of 21). […] Parent compound (GSK2330672) was the only drug related material observed in the urine, and the concentration was low and not observed in all subjects. […] Of note, plasma concentrations of TUDCA and GUDCA were still at levels associated with clinical efficacy in published studies of UDCA therapy for PBC. Dilger K, Hohenester S, Winkler Budenhofer U, Bastiaansen B, Schapp F, Rust C, Beuers U. Effect of ursodeoxycholic acid on bile acid profiles and intestinal detoxification machinery in primary biliary cirrhosis and health. Journal of Hepatology. 2012; 57:133-40.

[2] = Plasma drug concentrations after administration of GSK2330672; format: in vivo, human
Procedure: Because the pharmacological target of GSK2330672 is located on the brush border of enterocytes in the intestinal lumen, the molecule was designed to have low permeability and high polar surface area to limit absorption into the portal or systemic circulation. Blood samples were obtained at frequent intervals after administration of GSK2330672 for assays of plasma drug concentrations. The majority of measurements were below the lower limit of quantification for the assay (LLQ=1 ng/mL). The highest measurable concentration was 5.33 ng/ml obtained 2 hours post-dose in 1 subject, confirming limited absorption into the systemic circulation.

[3] = biological target: T1, ileal bile acid transporter (Homo sapiens, UniProt Q12908); experiment: Single and repeated oral doses in healthy subjects (bile acid pharmacodynamics); format: in vivo
T1 construct: the pharmacological target of GSK2330672 is located on the brush border of enterocytes in the intestinal lumen; from tissue; host or cells: intestinal enterocytes (brush border) of human subjects, in vivo
T1 sequence (Q12908 1-348): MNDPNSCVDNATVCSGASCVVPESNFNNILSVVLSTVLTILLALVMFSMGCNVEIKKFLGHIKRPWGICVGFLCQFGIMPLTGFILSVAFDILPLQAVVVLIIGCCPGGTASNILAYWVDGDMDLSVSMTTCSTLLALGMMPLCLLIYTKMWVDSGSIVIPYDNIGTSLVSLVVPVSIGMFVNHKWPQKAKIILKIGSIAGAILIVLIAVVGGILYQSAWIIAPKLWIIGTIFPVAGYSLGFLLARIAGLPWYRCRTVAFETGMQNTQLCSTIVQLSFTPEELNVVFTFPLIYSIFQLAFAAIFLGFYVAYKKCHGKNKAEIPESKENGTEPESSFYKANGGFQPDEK
From the text: Repeated doses suppressed both fasting and post-prandial bile acid concentrations measured on Day 1 and Day 10 of dosing. The anticipated adaptive response to inhibited bile acid reabsorption, upregulation of hepatic bile acid synthesis, was estimated by measuring serum concentrations of 7-alpha-hydroxy-4-cholesten-3-one (C4). With repeated doses of GSK2330672, serum C4 concentrations increased up to 10-fold after ten days of dosing.

[4] = test system: T2D subjects; experiment: Study 200185: 7-day treatment added to metformin in T2D subjects; format: in vivo, human; settings: 7 days
[5] = test system: T2D subjects; experiment: Study 201351: 14-day dose-ranging study added to metformin in T2D subjects; format: in vivo, human
Procedure: For T2D subjects who completed the 14-day treatment period with GSK2330672 added to metformin in Study 201351, repeated doses of GSK2330672 from 10 mg to 90 mg BID reduced circulating prandial glucose concentrations at all doses compared to placebo and sitagliptin over 14 hours post-dose. The circulating concentrations of serum C4 were increased over 14 hours post-dose by GSK2330672 at all doses compared to placebo and sitagliptin; while C4 concentrations for the 10 mg, 20 mg, 30 mg and 60 mg of GSK2330672 groups appear to have reached a plateau by Day 7, this was not the case for the 90 mg group in which the Day 14 values were greater than those at Day 7.
Reductions in fasting plasma glucose were greater in GSK2330672 30 mg, 60 mg, and 90 mg groups on Day 7 and Day 14 compared to placebo and sitagliptin groups.

[6] = test system: healthy subjects, T2D subjects, PBC pruritus subjects
[7] = 45 increased on Day 3 to 90 mg BID, with metformin

## CCCC[C@]1(CC)CS(=O)(=O)c2cc(CNC(CC(=O)O)CC(=O)O)c(OC)cc2[C@@H](c2ccccc2)N1 [GSK2330672]
[1]; 0 to 10 numerical rating scale, 95% CI
  reduction in itch intensity as measured by NRS: −1.58 (95% Cl: −2.48 to −0.68)
[1]; 90 mg BD
  effect on absorption of ursodeoxycholic acid (UDCA): did not inhibit
[1]; 90 mg BD, 3 rating scales (10 point NRS, 5D Itch Scale, PBC-40)
  pruritus severity compared to placebo: statistically significant decrease
[1]; 90 mg BD, 14 day
  decrease in concentration of serum total bile acids: approximately 50%
  increase in serum C-4: 3 fold
[1]; 90 mg BD, minimally absorbed
  subjects with detection of GSK2330672 in isolated samples: 8 out of 21
[1]; 95% CI
  reduction in itch intensity, 5-D itch: −4.55 (95% Cl: −6.60 to −2.49)
  reduction in itch intensity, PBC-40 itch domain: −0.59 (95% Cl: −0.94 to −0.24)
[1]; GSK672 period (placebo 5%)
  Diarrhoea AE frequency: 33%
[1]; GSK672 period (placebo 33%)
  headache AE frequency: 29%
[1]; GSK672 period, 17/21, 45 to 90 mg twice daily 14 days
  Frequency of any AE: 81%
[1]; baseline 48.64±68.77 μM, p=0.15
  serum TBA levels after GSK672 treatment: 25.15 ± 23.85 µM
[1]; itch, 45 to 90 mg twice daily 14 days
  response rate: 71%
[1]; oral 45 to 90 mg twice daily for 14 days, 21 PBC patients
  serious AEs: No serious AEs were reported
[1]; two weeks of oral twice daily dosing
  tolerability: well tolerated
[1]; vs. 3.1±0.55, p=0.009
  serum levels of deoxycholate following GSK672: 3.39 ± 0.64 µM
[1]; vs. 3.47±7.15 μM, p=0.0004
  serum levels of taurocholate after GSK672: 0.31 ± 0.74 µM
[1]; vs. 3.68±7.50 μM, p=0.002
  serum levels of taurochenodeoxycholate after GSK672: 0.8 ± 1.46 µM
[1]; vs. 4.44±7.43 μM, p=0.0013
  serum levels of glycocholate after GSK672: 0.9 ± 1.21 µM
[1]; vs. 8.25±4.17, p=0.006
  serum ATX activity following GSK672: 6.95 ± 2.62 nmol/mL/min
[1]; vs. 13.13±10.04, p=0.0006
  serum levels of C4 following GSK672: 35.2 ± 25.32 ng/mL
[1]; vs. 162.9±107.5, p<0.0001
  serum FGF19 levels following GSK672: 50.66 ± 47.31 pg/mL
[2]; below lower limit of quantification (LLQ=1 ng/mL)
  plasma drug concentration, majority of measurements: < 1 ng/mL
[2]; human, plasma, oral, 2 hours post-dose in 1 subject, read-out: highest measurable plasma concentration
  concentration at 2 hours: 5.33 ng/mL
[3]; healthy subjects, single doses
  fecal bile acid excretion over the subsequent 48 hours: significantly increased
[3]; repeated doses, Day 1 and Day 10
  fasting and post-prandial bile acid concentrations: suppressed
[3]; repeated doses, after ten days of dosing
  increase in serum C4 concentrations: up to 10 fold
[4]; [7]
  C4 concentrations: increased
  serum total bile acid concentrations: significantly decreased
[4]; placebo 3.5% mean increase
  mean reduction in fasting LDL-C from baseline: 41.7%
[4]; placebo −16.0%
  Fasting serum triglycerides: relatively stable
[5]; 10 mg to 90 mg BID, all doses, over 14 hours post-dose
  circulating prandial glucose concentrations compared to placebo and sitagliptin: reduced
[5]; 30 mg, 60 mg and 90 mg groups, Day 7 and Day 14
  reductions in fasting plasma glucose compared to placebo and sitagliptin groups: greater
[5]; 60 mg group, greatest mean reduction
  fasting serum apoB/cholesterol, LS mean change from baseline (expressed as a ratio) difference from placebo (95% CI): 0.74 (0.66, 0.82)
[5]; 90 mg group, Day 14, 95% CI [−33.73, −1.48]
  fasting plasma insulin, LS mean difference from placebo: -17.61 pmol/L
[5]; all dose groups
  triglyceride concentrations: trend for an increase
[5]; all doses, over 14 hours post-dose
  circulating concentrations of serum C4 compared to placebo and sitagliptin: increased
[5]; any dose group
  HDL cholesterol: no clinically meaningful changes
[6]; any study
  deaths or pregnancies: No deaths or pregnancies were reported
[6]; gastrointestinal symptoms
  most commonly reported adverse events: diarrhea, abdominal pain and bowel movement irregularity
[6]; healthy subjects, T2D patients, PBC pruritus patients
  vital signs, ECG, spirometry, clinical laboratory findings: no clinically significant patterns
